Measurements taken from PMC4336329 (PLoS ONE, 2015).
The whole screen tested about 310,000 compounds, of which about 14,000 (4.5%) showed an effect of 50% or more. The effect is printed as a negative number. This is one part of the list.

Molecular target: human ether-à-go-go-related gene (hERG) potassium channel (human, UniProt Q12809)
Assay: primary screen, population patch clamp on CHO cells stably expressing hERG
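Note: peak tail current of the secondary pulse compared with the same well before compound.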

human ether-à-go-go-related gene (hERG) potassium channel, sequence (Q12809 whole entry, looked up): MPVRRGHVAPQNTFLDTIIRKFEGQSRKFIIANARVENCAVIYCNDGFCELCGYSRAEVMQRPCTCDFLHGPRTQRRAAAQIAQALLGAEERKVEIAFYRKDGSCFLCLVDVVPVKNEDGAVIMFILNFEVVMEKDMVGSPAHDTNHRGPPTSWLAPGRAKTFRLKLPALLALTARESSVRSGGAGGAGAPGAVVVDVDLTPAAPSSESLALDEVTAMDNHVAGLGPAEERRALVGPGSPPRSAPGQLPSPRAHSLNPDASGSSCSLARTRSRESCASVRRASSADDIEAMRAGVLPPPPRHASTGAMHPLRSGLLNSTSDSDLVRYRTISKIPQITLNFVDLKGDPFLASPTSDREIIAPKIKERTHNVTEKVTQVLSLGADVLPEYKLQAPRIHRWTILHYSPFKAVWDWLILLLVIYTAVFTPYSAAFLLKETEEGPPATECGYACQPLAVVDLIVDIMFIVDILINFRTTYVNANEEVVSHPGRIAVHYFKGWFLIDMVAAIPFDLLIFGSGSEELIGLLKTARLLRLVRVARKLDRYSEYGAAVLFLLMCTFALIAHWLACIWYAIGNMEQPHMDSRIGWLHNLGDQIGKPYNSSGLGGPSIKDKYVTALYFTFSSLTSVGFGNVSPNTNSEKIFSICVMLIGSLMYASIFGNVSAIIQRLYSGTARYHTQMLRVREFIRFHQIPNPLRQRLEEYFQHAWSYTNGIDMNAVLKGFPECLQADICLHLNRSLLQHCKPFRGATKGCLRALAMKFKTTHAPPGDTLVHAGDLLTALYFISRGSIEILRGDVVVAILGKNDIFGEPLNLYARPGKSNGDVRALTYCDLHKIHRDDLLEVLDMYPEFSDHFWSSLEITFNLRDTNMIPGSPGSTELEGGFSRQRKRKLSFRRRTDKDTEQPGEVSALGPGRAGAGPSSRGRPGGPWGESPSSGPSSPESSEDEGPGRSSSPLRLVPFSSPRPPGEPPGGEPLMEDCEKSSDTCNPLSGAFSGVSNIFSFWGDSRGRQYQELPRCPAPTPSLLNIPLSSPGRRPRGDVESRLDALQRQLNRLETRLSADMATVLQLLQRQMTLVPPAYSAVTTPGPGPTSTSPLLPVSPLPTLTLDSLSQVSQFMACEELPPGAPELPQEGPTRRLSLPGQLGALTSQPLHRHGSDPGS

SMILES	hERG current change (%, negative = inhibition) at 10uM [%]
CCOC(=O)c1c(NC(=O)c2ccccc2)sc2c(O)c(CN(CC)CC)ccc12.Cl	-2.84
NC(=O)CCC(C(=O)O)N1C(=O)c2ccc(O)cc2C1=O (centres unmarked)	23.4
CN1C(=O)/C(=C/c2ccc(C(F)(F)F)cc2)Sc2ccc(C(=O)N3CCN(c4ccccn4)CC3)cc21	5.11
COC(=O)C(=C/C(C)=C/c1cccs1)C(=O)OC	-13.7
C=CCn1c(SCc2ccccc2)nc2c1c(=O)[nH]c(=O)n2C	-21.6
CC1(C)CC(=O)C=C(N2CCNCC2)C1	14.9
CCOc1ccc(N(CC(=O)NCc2cccc(OC)c2)S(=O)(=O)c2c(C)noc2C)cc1	2.94
CC(C)(CNC(=O)c1ccc(Cl)c(S(=O)(=O)N2CCc3ccccc3C2)c1)N1CCOCC1	-50.3
CCN1C(=O)c2ccccc2S(=O)c2ccc(C(=O)NCCN(CC(C)C)CC(C)C)cc21 (centres unmarked)	-4.59
CCOC(=O)c1ccccc1NC(=O)c1cccnc1	-17.2
CCN(CC)S(=O)(=O)c1ccc(NC=C(C#N)C#N)cc1	-9.81
Cc1cccc(NC(=O)c2cn(-c3ccccc3)nc2-c2ccccc2)c1	7.8
O=C(NCc1ccc2c(c1)OCO2)c1ccc(S(=O)(=O)C(F)F)cc1	-47.8
Cc1ccc(NS(=O)(=O)c2ccc(OCC(N)=O)cc2)cc1	7.32
CC(=O)N1CCc2cc(S(=O)(=O)CCC(=O)NCc3cccs3)ccc21	3.98
COC(=O)Cc1[nH]nc2c1C1(CCSCC1)C(C#N)=C(N)O2	-0.931
CC(C)OC(=O)c1ccc(Cn2nnc3ccccc3c2=O)cc1	-5.23
COc1cc2c(cc1OC)CN(C(=O)COc1ccccc1[N+](=O)[O-])CC2	0.631
O=C(CNC(=O)OCc1ccccc1)Nc1ccc(Br)cc1C(=O)c1ccccc1	-15.1
COc1cc(C(=O)Nc2cccc(-n3cnnn3)c2)cc(OC)c1OC	0.747
Cn1c(-c2ccc(F)c(F)c2)cc2onc(-c3ccccc3)c2c1=O	-21.7
CC(CCc1ccccc1)NC(=O)Cc1ccccc1 (centres unmarked)	2.65
Cc1cccc(NC(=O)Nc2cnccn2)c1	7.09

SMILES	hERG current change (%, negative = inhibition) at 10uM [%]
Cn1c(=O)c(C(=O)N2CCc3ccccc32)cc2cccnc21	-6.73
C=CCc1c(C)nc(-c2ccccc2)nc1N/N=C(\C)c1ccc(N)cc1	-0.357
O=C(NCCN1CCN(C(=O)c2cccc([N+](=O)[O-])c2)CC1)C(=O)NCc1ccc(Cl)cc1	-50.1
Cc1ccc(C(=O)c2ccccc2C(=O)OCC(=O)NCCc2ccccc2)cc1	-52.5
O=C(CSc1nnc(CNC(=O)c2c(F)cccc2F)o1)c1ccccc1	-17.7
CC(C)CCNC(=O)c1onc(CSc2ccccc2)c1C(=O)NCCC(C)C	12.5
CCC(C)(C)NC(=O)CN(Cc1ccccc1)C(=O)CCC(=O)Nc1nccs1	-4.19
C=CCOc1c(Br)cc(C2NC(=O)NC(C)=C2C(C)=O)cc1OCC (centres unmarked)	13.4
Cn1nc(-c2ccccc2)c(C(=O)Nc2ccc(C(F)(F)F)cc2)c1Cl	-4.85
Cc1ccc(-c2noc(CCC(=O)N3CCCC3)n2)cc1	-1.57
Cc1ccc(Oc2ccc(OCC(=O)OC3CCS(=O)(=O)C3)cc2)cc1 (centres unmarked)	7.68
Cn1c(=O)c(C(=O)Nc2ncccn2)c(O)c2ccccc21	14.4
CCc1ccc(OCC(=O)O/N=C(\N)c2ccncc2)c(Br)c1	10.2
Cl.O=C(OCCN1CCCCC1)c1ccccc1Cl	-4.37
CCCCOc1ccc(CCN)cc1Cl.Cl	-13.7
CCc1ccc(C(=O)Nc2ccc(OC)c(S(=O)(=O)N3CCCCC3)c2)cc1	-22.3
O=C(NNC(=S)NCc1ccccc1)c1ccc(OC(F)F)cc1	-4.93
COc1cc(/C=N/NC(=O)CNC(=O)c2ccccc2)ccc1OC(=O)c1cccs1	-16
CNC(=O)COC(=O)c1ccc([N+](=O)[O-])cc1Cl	14.7
Cc1cc(C)[n+](C2C3CC4CC(C3)CC2C4)o1.[O-][Cl+3]([O-])([O-])[O-] (centres unmarked)	14.7
CCCCC12CNCC(C)(CNC1)C2=O	1.19
O=C(O)c1ccc(-c2noc(-c3ccccc3C(F)(F)F)n2)cc1	14.6
CCc1ccc(C(C(=O)NC2CCCC2)N(Cc2cccnc2)C(=O)c2csnn2)cc1 (centres unmarked)	-15

SMILES	hERG current change (%, negative = inhibition) at 10uM [%]
S=C(NCc1ccco1)N/N=C/c1ccncc1	-13.6
CCOc1ccc(CCNC(=O)/C=C/c2ccco2)cc1OCC	-70
COc1ccc(NC(=O)NNC(=O)c2cc(C3CC3)nc3ccccc23)c(OC)c1	8.88
COc1ccc(Cl)cc1NS(=O)(=O)c1ccc(OC)c(OC)c1	-11.3
C=CCN(C(=O)c1csnn1)C(C(=O)NC1CCCC1)c1c(F)cccc1Cl (centres unmarked)	1.48
COC(CNS(=O)(=O)c1cccc2nonc12)OC	14.5
Cc1cccn2c(=O)c(C=NCc3ccccc3)c(NCCO)nc12	0.417
CC(CN1CCOCC1)OC(=O)/C=C/c1ccccc1.Cl (centres unmarked)	10.1
COC(=O)c1cccc(COC(=O)c2cccnc2SC)c1	-1.7
CN(C(=O)c1ccc(NC(=O)Cc2ccc(NC(=O)C3CCCN(C(=O)C4CC4)C3)cc2)cc1)C1CC1 (centres unmarked)	-4.41
CSc1oc(-c2cccs2)nc1S(=O)(=O)c1ccccc1	-2.86
Cn1c(=O)c(C(=S)NC(=O)C2CC2)c(N)n(Cc2ccccc2)c1=O	18.2
COc1ccc(Cc2cc(-c3ccc(F)cc3)n[nH]c2=O)cc1	11.3
COCCn1c(SCC(N)=O)nnc1-c1c[nH]c2ccccc12	12
COc1ccccc1CNC(=O)CSc1ccccc1	10.9
COc1cc(NC(=O)c2cc3nc(-c4ccccc4)cc(-c4ccccc4)n3n2)cc(OC)c1OC	6.37
CCOC(=O)C[C@H]1c2cc(F)ccc2S(=O)(=O)N1C(C)(C)C	0.338
CCn1ncc(Cl)c1C(=O)Nc1cc(Cl)ccc1Cl	3.04
O=C(NCc1ccccc1)C(c1ccco1)N(C(=O)c1csnn1)c1ccccc1 (centres unmarked)	21.6
Cc1ccccc1C(=O)N1CCN(CCNC(=O)C(=O)Nc2ccc(Br)cc2)CC1	-68.8
CN1C=CC=C/C1=C1/N=C(c2ccccc2)OC1=O	31.5
CN(C)CCN(C(=O)c1ccc(Br)s1)c1nc2cc3c(cc2s1)OCCO3.Cl	-4.91
COC(=O)C1=NN(c2ccc(Cl)cc2)C2C(=O)N(c3ccccc3OC)C(=O)C12 (centres unmarked)	12

SMILES	hERG current change (%, negative = inhibition) at 10uM [%]
CC(C)(C)C(=O)NC(=S)Nc1ccccc1C(=O)Nc1ccccc1	6.6
Nc1ccc(Oc2ccccc2-c2ccccc2)cc1	-20.4
COc1ccccc1NS(=O)(=O)c1cc(NC(=O)c2cccs2)ccc1N1CCCC1	6.58
CCOC(=O)c1cn[nH]c1NC(=S)Nc1ccc(Cl)cc1	1.86
Clc1ccc(CSc2nnc(-c3ccccn3)n2Cc2ccco2)c(Cl)c1	-5.15
CC(C)C(c1nnnn1C(C)(C)C)N1CCC(Cc2ccccc2)CC1 (centres unmarked)	-14.3
Cc1ccccc1-n1c(SC2CCOC2=O)nnc1-c1ccncc1 (centres unmarked)	-3.17
O=C(COc1ccc([N+](=O)[O-])cc1Cl)N1CCOCC1	12
Cc1cc2c(cc1C)[n+](C)cn2CC(O)COCc1ccccc1.[I-] (centres unmarked)	6.97
N#CC1=C2SCCN2C(=O)C(C#N)C12CCCCC2 (centres unmarked)	-25.9
COc1ccccc1CNC(=O)c1cc2ccccc2o1	-26.4
CCOC(=O)c1cccc(NC(=O)CSc2nnc(-c3cccnc3)n2C)c1	-30.4
O=C(C1=C[C@@H](c2coc3ccccc3c2=O)C[C@@H](OCCCCO)O1)N1CCN(Cc2ccc3c(c2)OCO3)CC1	-49.7
O=C(O)CCC(=O)c1ccc(-c2ccccc2)cc1	-6.1
CC(=O)N1c2ccc(S(=O)(=O)N3CCCC3)cc2CC1C(=O)NCc1cccc(F)c1 (centres unmarked)	-2.23
CCCCN(Cc1ccccc1)S(=O)(=O)c1cc(Br)cc2c1N(C(C)=O)C(C)C2 (centres unmarked)	-10.6
O=C(Cc1cccs1)Nc1cc(S(=O)(=O)N2CCCCC2)ccc1Cl	-0.378
COc1ccc(OCC(=O)Nc2ccc(N3CCOCC3)c(Cl)c2)cc1	-19.6
CC(=O)c1ccc(NC(=O)NCc2ccc(F)cc2)cc1	7.1
COc1ccc(Nc2nc(-c3ccccc3)nc3ccccc23)c(OC)c1	-1.67
